Screen size: about 270,000 compounds; about 5,800 (2.1%) were called active. The inconclusive results got no clear call from the source; some entries with a clear call stand among them for comparison. Calls come from the whole dose curve; as a rule, active = well fitted inhibition curve with a large enough effect; inconclusive = small, poorly fitted or top-dose-only effect; inactive = flat fitted curve, though single readings scatter. Where the call is inconclusive, the potency comes from a doubtful curve fit.
What follows are molecules tested against Microtubule-associated protein tau (Homo sapiens) (UniProt P10636) (assay: qHTS for Inhibitors of Tau Fibril Formation, Thioflavin T Binding). Conditions: recombinant tau K18 P301L, heparin-induced fibrillization, ThT fluorescence; series mostly up to 57.4 µM; activity, negative = inhibition: at the top concentration.
Sequence of UniProt P10636 (P10636 whole entry, looked up): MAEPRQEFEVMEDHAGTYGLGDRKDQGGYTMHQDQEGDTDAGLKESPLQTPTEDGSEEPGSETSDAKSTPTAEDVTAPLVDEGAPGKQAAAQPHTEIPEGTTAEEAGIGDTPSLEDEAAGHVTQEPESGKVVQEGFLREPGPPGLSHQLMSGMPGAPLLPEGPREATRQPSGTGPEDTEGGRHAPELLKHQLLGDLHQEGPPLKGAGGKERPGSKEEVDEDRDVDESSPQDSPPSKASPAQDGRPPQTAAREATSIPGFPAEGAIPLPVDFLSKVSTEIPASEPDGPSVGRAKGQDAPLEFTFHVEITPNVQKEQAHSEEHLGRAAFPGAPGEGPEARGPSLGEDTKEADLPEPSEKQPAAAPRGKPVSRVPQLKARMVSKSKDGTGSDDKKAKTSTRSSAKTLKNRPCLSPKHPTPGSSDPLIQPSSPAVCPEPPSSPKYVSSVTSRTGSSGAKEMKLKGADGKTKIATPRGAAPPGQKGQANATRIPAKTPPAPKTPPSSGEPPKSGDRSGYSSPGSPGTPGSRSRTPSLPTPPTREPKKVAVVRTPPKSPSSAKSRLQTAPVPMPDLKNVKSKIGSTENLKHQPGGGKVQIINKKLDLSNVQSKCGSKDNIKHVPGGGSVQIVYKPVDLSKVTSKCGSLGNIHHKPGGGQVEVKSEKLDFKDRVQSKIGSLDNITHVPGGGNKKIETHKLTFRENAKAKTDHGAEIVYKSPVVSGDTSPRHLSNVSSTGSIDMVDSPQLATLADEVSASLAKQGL
In short: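 Using a mix of unlabeled (15 uM) and Alexa 594-labeled (0.24 uM) tau K18 P301L, heparin-triggered fibrillization over 6 hr at 37 C was scored by ThT fluorescence.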
With `CCOc1ccc(C(=O)Nc2ccc3nn(-c4ccc(OC)c(Cl)c4)nc3c2)cc1` the Potency was inconclusive: 0.355 µM [inhibitor, full curve].
In the case of `C=CCn1c(SCC(=O)c2ccc(CNC(C)=O)o2)nc2ccccc2c1=O`, the Potency is reported as inconclusive: 20 µM [inhibitor, single point].
With `Cc1ccc2cccc(NC(=S)NC(=O)c3ccnn3C)c2n1` the Potency was inconclusive: 14.1 µM [inhibitor, partial curve, poor fit].
`COC(=O)c1ccc(NC(=O)CSCC(=O)OCC(=O)c2ccc(Br)cc2)cc1` was tested, and the Potency was inconclusive: 17.8 µM [inhibitor, partial curve].
For `CCc1ccc(C(=O)COC(=O)c2cccs2)cc1`, the Potency was inconclusive: 17.8 µM [inhibitor, partial curve, poor fit].
With `COCCCn1c(-c2ccco2)nc2ccccc2c1=O` the “activity, negative = inhibition” value was inactive: -8.73%.
In the case of `O=C(OC1CCOC1=O)c1ccc(-c2nc3ccccc3s2)s1` (configuration not stated), the Potency is reported as inconclusive: 8.91 µM [inhibitor, full curve, poor fit].
In the case of `CCc1c(C)nc(SCc2nc(-c3ccccc3)no2)[nH]c1=O`, the “activity, negative = inhibition” value is reported as inactive: 4.53%.
For `O=C(c1cc(-c2ccccc2O)on1)N1CCCCC1`, the “activity, negative = inhibition” value was inactive: -4.11%.
For `COc1cc(-c2cc(C(=O)Nc3nc4ccccc4s3)c3ccccc3n2)cc(OC)c1OC`, the Potency was inconclusive: 39.8 µM [inhibitor, single point].
For `CN1CCN(C(=O)CCN2C(=O)/C(=C\c3ccc(Cl)cc3Cl)SC2=S)CC1`, the Potency was inconclusive: 39.8 µM [inhibitor, single point].
For `COc1ccc(-c2cc(C(F)(F)F)n3ncc(C(=O)NCc4ccco4)c3n2)cc1`, the Potency was inconclusive: 14.1 µM [inhibitor, partial curve].
`O=C(CSCc1ccc(F)cc1)N1CCN(c2ccc(Cl)cc2)CC1` was tested, and the Potency was inconclusive: 6.31 µM [inhibitor, partial curve].
`O=C(c1ccccc1)c1ccc2nc(-c3ccco3)c(-c3ccco3)nc2c1` was tested, and the Potency was active: 14.1 µM.
`O=C(/C=C/c1ccco1)NC(=S)Nc1cccc([N+](=O)[O-])c1` was tested, and the “activity, negative = inhibition” value was inactive: 0.838%.
`O=C(Nc1ccc(S(=O)(=O)Nc2cnc3ccccc3n2)cc1)c1ccc(Br)o1` was tested, and the “activity, negative = inhibition” value was inactive: -12.5%.
With `Oc1ccccc1Nc1nc(NCc2ccco2)c2ccccc2n1` the Potency was inconclusive: 17.8 µM [inhibitor, partial curve, poor fit].
`CNC(=O)C1CCC(Cn2c(=O)c3sccc3n(CC(=O)NCc3ccc(OC)cc3)c2=O)CC1` (configuration not stated) was tested, and the “activity, negative = inhibition” value was inactive: 4.61%.
With `N#Cc1ccsc1NC(=O)c1ccc(Cl)c([N+](=O)[O-])c1` the Potency was inconclusive: 3.16 µM [inhibitor, full curve].
With `COc1ccc2cc(-c3nc(Cl)c4c5c(sc4n3)CC(C)CC5)c(=O)oc2c1` (configuration not stated) the Potency was inconclusive: 14.1 µM [inhibitor, partial curve].
`CCOC(=O)Cc1csc(NC(=O)c2cccc(N3C(=O)CCC3=O)c2)n1` was tested, and the Potency was inconclusive: 14.1 µM [inhibitor, partial curve, poor fit].
For `Cc1ccc(NC(=O)c2c(Cl)n(C)c3ccccc23)cc1`, the Potency was inconclusive: 2.82 µM [inhibitor, full curve].
With `CC(CCc1ccco1)NC(=O)Cn1ncc2c1-c1ccccc1OC2` (configuration not stated) the “activity, negative = inhibition” value was inactive: -11.7%.
In the case of `Cc1ccc(CNC(=O)c2ccc(Cn3c(=O)c4ccccc4n(CC(=O)Nc4ccc(C)cc4)c3=O)cc2)cc1`, the “activity, negative = inhibition” value is reported as inactive: 2.62%.
For `COc1ccc(-c2oc3ncn(CCN4CCOCC4)c(=N)c3c2-c2ccc(OC)cc2)cc1`, the Potency was inconclusive: 39.8 µM [inhibitor, single point].
With `COc1ccc(N2CCN(C(=O)CCCC3=NS(=O)(=O)c4ccccc4N3)CC2)cc1` the Potency was inconclusive: 12.6 µM [inhibitor, partial curve].
For `Cc1ccc(C2=NC(=O)/C(=C/c3cc(O)c(O)c(Br)c3)S2)cc1`, the Potency was active: 3.98 µM.
`CCOc1[nH]n(-c2ccccc2)c(=O)c1C=Nc1ccccc1` was tested, and the Potency was inconclusive: 14.1 µM [inhibitor, single point].
With `COC(=O)c1cccc(Nc2ccc([N+](=O)[O-])cn2)c1` the Potency was inconclusive: 3.16 µM [inhibitor, full curve].
`COc1ccc(-c2nc(CSCC(=O)NCCc3ccccc3)c(C)o2)cc1` was tested, and the Potency was inconclusive: 15.8 µM [inhibitor, single point].
In the case of `CCCCc1c(C)c2cc(C)ccc2[nH]c1=O`, the Potency is reported as inconclusive: 28.2 µM [inhibitor, partial curve].
With `Cc1cc(C)nc(NC(=O)c2cc([N+](=O)[O-])cc([N+](=O)[O-])c2)n1` the “activity, negative = inhibition” value was inactive: -12.7%.
`CCn1c(CN2CCC(C)CC2)nc2cc(NC(=O)COc3ccc(Cl)c(C)c3)ccc21` was tested, and the “activity, negative = inhibition” value was inactive: 0.509%.
`COc1cccc(C(=O)NC2=NCCS2)c1` was tested, and the “activity, negative = inhibition” value was inactive: -7.72%.
For `C/C(=N\NC(=O)Cc1cccn1C)c1ccc([N+](=O)[O-])cc1`, the Potency was inconclusive: 15.8 µM [inhibitor, partial curve].
In the case of `CCn1c2ccccc2c2cc(NC(=O)CSc3nnc(-c4ccc(OC)cc4)n3N)ccc21`, the Potency is reported as inconclusive: 0.199 µM [inhibitor, full curve].
For `C=CCn1c(N)c(C(=O)OC(C)(C)C)c2nc3ccccc3nc21`, the Potency was inconclusive: 31.6 µM [inhibitor, partial curve].
`COc1ccccc1Nc1nc(NCCCN(C)C)nc(N)c1[N+](=O)[O-]` was tested, and the Potency was inconclusive: 14.1 µM [inhibitor, partial curve].
`COc1cc(NC(=O)c2ccco2)c(OC)cc1NC(=O)CCC(=O)Nc1cc(C)cc(C)c1` was tested, and the Potency was inconclusive: 25.1 µM [inhibitor, partial curve].
For `COc1ccc(CCNCC(O)Cn2c3ccccc3c3ccccc32)cc1OC` (configuration not stated), the “activity, negative = inhibition” value was inactive: -11.5%.
With `Cc1ccccc1S(=O)(=O)NC1OC(=O)C(Cl)=C1Cl` (configuration not stated) the Potency was active: 28.2 µM.
In the case of `COc1cccc(-c2nc(CS(=O)CC(=O)O)c(C)o2)c1` (configuration not stated), the “activity, negative = inhibition” value is reported as inactive: -17.9%.
With `CN(C)c1ccc(-c2cc(NCc3ccccc3)ncn2)cc1` the Potency was inconclusive: 2.51 µM [inhibitor, full curve].
With `CCOC(=O)c1c(C)[nH]c(C)c1S(=O)(=O)N1CCCC(C(=O)NCc2ccc(Cl)cc2)C1` (configuration not stated) the “activity, negative = inhibition” value was inactive: 9.31%.
With `CCCCN(CC)C(=O)CSc1c2c(nc3ccc(Cl)cc13)CCCC2` the Potency was inconclusive: 0.794 µM [inhibitor, full curve].
In the case of `CSc1nnc(-c2ccc([N+](=O)[O-])cc2)o1`, the Potency is reported as inconclusive: 17.8 µM [inhibitor, partial curve].
For `CCCCCC(=O)NC(=S)Nc1ccc(NC(=O)c2ccco2)cc1`, the “activity, negative = inhibition” value was inactive: -15.9%.
In the case of `Oc1c(C=NCc2ccc(F)cc2)[nH]c2ccc(Br)c(Cl)c12`, the Potency is reported as inconclusive: 15.8 µM [inhibitor, partial curve].
For `COc1ccc(N=c2oc3cc(O)ccc3cc2C(=O)Nc2ccccn2)cc1OC`, the Potency was inconclusive: 2.24 µM [inhibitor, partial curve, poor fit].
`CCOc1ccc(NC(=O)CC2C(=O)N(c3ccc(Cl)cc3)C(=O)N2Cc2cccs2)cc1` (configuration not stated) was tested, and the Potency was inconclusive: 39.8 µM [activator, single point].
`COc1cc(C(=S)NC2CCCCC2)ccc1O` was tested, and the Potency was inconclusive: 15.8 µM [inhibitor, partial curve].
In the case of `COc1cccc(NC(=O)c2ccc(-c3nc(COc4ccccc4)c(C)o3)cc2)c1`, the Potency is reported as inconclusive: 2.82 µM [inhibitor, full curve, poor fit].
`CC(=O)c1ccc(OCCOc2ccc(C#N)cc2)cc1` was tested, and the Potency was inconclusive: 11.2 µM [inhibitor, partial curve, poor fit].
With `CCc1ccccc1Nc1nn2c(=O)c3ccc(C(=O)NCCCOC(C)C)cc3nc2s1` the Potency was inconclusive: 1 µM [inhibitor, full curve].
In the case of `CCCCS(=O)(=O)/C=C\C=C/S(=O)(=O)CCCC`, the Potency is reported as inconclusive: 3.55 µM [inhibitor, partial curve].
In the case of `COCCCNC(=O)c1c(N)n(-c2ccccc2)c2nc3ccccc3nc12`, the Potency is reported as inconclusive: 31.6 µM [inhibitor, single point].
`CC(C)CO/N=C1/C[C@@H](O)[C@@H](O)[C@@H]2[C@H]3C(=O)N(c4ccc(F)cc4F)C(=O)[C@@H]3CC[C@@H]12` was tested, and the activity, negative = inhibition was inactive: -7.07% [at 11.5 µM].
In the case of `CC1CCCN(C(=O)CSc2cnc3ccccc3n2)C1` (configuration not stated), the “activity, negative = inhibition” value is reported as inactive: -7.86%.
For `Cc1cccc(C(=O)N2CCC(=O)N(C(COCc3cccc(Cl)c3)Cc3ccccc3)CC2)c1` (configuration not stated), the Potency was inconclusive: 10 µM [inhibitor, partial curve].
For `O=C(CCn1c(=O)c2cccn2c2cccnc21)N1CCN(c2ccccc2F)CC1`, the Potency was inconclusive: 35.5 µM [inhibitor, single point].
In the case of `O=C(COCc1cc(-c2cccs2)on1)N1CCN(c2cccc(Cl)c2)CC1`, the Potency is reported as inconclusive: 0.708 µM [inhibitor, partial curve].
With `Cc1[nH]nc2c1C(c1ccc(O)cc1)C1=C(CC(C)(C)CC1=O)N2` (configuration not stated) the “activity, negative = inhibition” value was inactive: -1.39%.
`Nc1nc2c(nc(Br)n2C2O[C@H]3COP(=O)(O)O[C@@H]3C2O)c(=O)[nH]1` (some centres not stated) was tested, and the Potency was inconclusive: 0.112 µM [inhibitor, full curve, poor fit].
With `Nc1ccc(-c2nc3ccc(N)cc3[nH]2)cc1` the Potency was inconclusive: 14.1 µM [inhibitor, partial curve].
In the case of `O=C(COc1ccccc1C(=O)Nc1ccccc1)c1ccc(Br)cc1`, the Potency is reported as inconclusive: 28.2 µM [inhibitor, single point].
With `CCc1nnc(N/N=C/c2ccccc2Cl)n1N` the Potency was inconclusive: 15.8 µM [inhibitor, partial curve].
In the case of `Cc1ccc(CN2CCNC(=O)C2CC(=O)NCC(F)(F)F)o1` (configuration not stated), the Potency is reported as inconclusive: 31.6 µM [inhibitor, single point].
% is set by controls: 0 for no effect and ±100 for the full control effect; potency is the fitted concentration of half-maximal effect; tags give direction and shape of the fitted curve.
Note: nearly all actives have a fitted effect of over 55% in size.
